# Data as given in the supplement of paper PMC10369915.
# This is one part of the list. Rule as the data show it: active = 3.2 or more and inactive = the rest. Most of these values are background signal.
# Experiments:
# Assay in all cases: enrichment score (SH2-bound / input frequency) (ratio); bacterial display of known human phosphotyrosine sites (pTyr-Var adds point mutants) read by sequencing; higher = stronger binding; tyrosines were phosphorylated by kinases first
# Details in all cases: peptide library: Human pTyr
# SHP2 C-SH2 domain E139D = molecular target: SHP2 C-SH2 domain E139D
# [1] = molecular target: SHP2 C-SH2 domain wild-type
# SHP2 N-SH2 domain L43F = molecular target: SHP2 N-SH2 domain L43F
# SHP2 N-SH2 domain T42A = molecular target: SHP2 N-SH2 domain T42A
# SHP2 N-SH2 domain T52S = molecular target: SHP2 N-SH2 domain T52S
# [2] = molecular target: SHP2 N-SH2 domain wild-type
# 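Also: displayed peptides selected on beads carrying the immobilized SH2 domain, with library peptides lacking any tyrosine serving as negative controls.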
Binder,enrichment score (SHP2 C-SH2 domain E139D),enrichment score [1],enrichment score (SHP2 N-SH2 domain L43F),enrichment score (SHP2 N-SH2 domain T42A),enrichment score (SHP2 N-SH2 domain T52S),enrichment score [2]
KGCSNEPYFGSLTAL [TNS3_HUMAN_1256],inactive: 1.2,inactive: 1.07,inactive: 1.03,inactive: 1.17,inactive: 1.34,inactive: 1.55
VVGSLSQYQLMKHQS [TLR5_HUMAN_798],inactive: 0.865,inactive: 0.671,inactive: 0.901,inactive: 0.722,inactive: 0.687,inactive: 0.804
IHNEDITYDELVLMM [TFG_HUMAN_33],inactive: 1.39,inactive: 1.18,inactive: 1.36,inactive: 1.46,inactive: 1.49,inactive: 1.39
AKVEFGVYESGPRKS [BCAP_HUMAN_694],inactive: 0.851,inactive: 0.802,inactive: 0.841,inactive: 0.652,inactive: 0.708,inactive: 0.83
DGLDKDEYTFSPGKS [TOP2B_HUMAN_1421],inactive: 0.742,inactive: 0.619,inactive: 1.06,inactive: 0.839,inactive: 1.49,inactive: 0.601
ERNHPRVYQNRDFRG [THRAP3_HUMAN_68],inactive: 1.22,inactive: 0.902,inactive: 0.832,inactive: 0.932,inactive: 0.893,inactive: 0.902
GEEADAVYESMAHLS [BCAP_HUMAN_419],inactive: 0.988,inactive: 0.832,inactive: 0.958,inactive: 0.776,inactive: 0.978,inactive: 1.06
ILEEEKIYAAPSNIT [TM192_HUMAN_213_YA],inactive: 0.87,inactive: 0.744,inactive: 0.91,inactive: 0.538,inactive: 0.693,inactive: 0.922
IRRRSSNYRAYATEP [TNNI3_HUMAN_26],inactive: 0.755,inactive: 0.641,inactive: 0.588,inactive: 0.85,inactive: 0.895,inactive: 0.731
AIDSLLNYETVKYFN [ABCB7_HUMAN_340],inactive: 0.684,inactive: 0.883,inactive: 0.857,inactive: 0.776,inactive: 0.837,inactive: 0.774
EQFEAAAYIIHAAKD [TLR3_HUMAN_759_YA],inactive: 0.667,inactive: 0.61,inactive: 0.84,inactive: 0.557,inactive: 0.827,inactive: 0.859
FGGEPLSYTRFSLAR [TFR1_HUMAN_20],inactive: 0.991,inactive: 0.772,inactive: 0.84,inactive: 0.708,inactive: 0.847,inactive: 0.876
AVTTEAIYEEIDAHQ [TM1L1_HUMAN_460],inactive: 1.18,inactive: 1.01,inactive: 1.15,inactive: 0.98,inactive: 0.949,inactive: 1.04
KGRFAEVYKAKLKQN [TGFBR2_HUMAN_259],inactive: 2.35,inactive: 3.1,inactive: 2.19,inactive: 2.92,inactive: 2.54,active: 3.4
CETVISAYTDMEEIG [BCAP_HUMAN_263_YA],inactive: 1.22,inactive: 1.04,inactive: 0.966,inactive: 1.22,inactive: 1.28,inactive: 1.44
SHSFRGAYGLAMKVA [TNS3_HUMAN_1206],inactive: 1.49,inactive: 1.26,inactive: 1.7,inactive: 1.38,inactive: 1.37,inactive: 1.88
EQIIQEIYSQIQSKK [TKT_HUMAN_275],inactive: 1.08,inactive: 0.941,inactive: 1.28,inactive: 1.21,inactive: 0.763,inactive: 0.966
KVSSTHAYLLPERPS [TNK2_HUMAN_860_YA],inactive: 1.18,inactive: 0.925,inactive: 0.791,inactive: 0.903,inactive: 0.988,inactive: 1.01

Binder,enrichment score (SHP2 C-SH2 domain E139D),enrichment score [1],enrichment score (SHP2 N-SH2 domain L43F),enrichment score (SHP2 N-SH2 domain T42A),enrichment score (SHP2 N-SH2 domain T52S),enrichment score [2]
AAAERPKYTFDFSEE [TOP2B_HUMAN_1370],inactive: 1.82,inactive: 0.936,inactive: 0.918,inactive: 1.06,inactive: 0.949,inactive: 1.19
AIKRMKEYASKDDHR [TIE2_HUMAN_860],inactive: 1.39,inactive: 1.49,inactive: 1.16,inactive: 1.24,inactive: 1.27,inactive: 1.44
EEITEEQYAMMRRAE [THEMIS_HUMAN_540_YA],inactive: 1.13,inactive: 1.04,inactive: 1.28,inactive: 1.2,inactive: 0.845,inactive: 0.996
NSPGNAFYSNVLARP [TMIG2_HUMAN_192_YA],inactive: 0.653,inactive: 1.06,inactive: 0.615,inactive: 0.62,inactive: 0.562,inactive: 0.618
FLEEIPDYKLNHALC [TLR3_HUMAN_858],inactive: 1.06,inactive: 1.15,inactive: 0.847,inactive: 1.05,inactive: 1.15,inactive: 0.738
GQVGTARYMAPEVLE [TGFBR2_HUMAN_424],inactive: 0.722,inactive: 0.602,inactive: 0.69,inactive: 0.616,inactive: 0.764,inactive: 0.733
WQNYRQAYSPRRGRS [THRAP3_HUMAN_118],inactive: 0.887,inactive: 0.765,active: 4.76,inactive: 0.682,inactive: 0.777,inactive: 0.854
GFHTHADYVLEMNMA [THOP1_HUMAN_278],inactive: 0.759,inactive: 0.62,inactive: 0.737,inactive: 0.668,inactive: 0.72,inactive: 0.624
GPLDGSPYAQVQRPP [TNS2_HUMAN_483],inactive: 0.796,inactive: 1.62,inactive: 0.444,inactive: 0.458,inactive: 0.505,inactive: 0.548
SGDKDHLYSTVCKPR [TGFI1_HUMAN_60],inactive: 1.13,inactive: 1.05,inactive: 1.01,inactive: 1.03,inactive: 1.31,inactive: 1.03
SSRWSKDYDVCVCHS [TIRAP_HUMAN_86],inactive: 1.48,inactive: 1.25,inactive: 1.24,inactive: 1.31,inactive: 1.46,inactive: 1.61
WQNARQAYSPRRGRS [THRAP3_HUMAN_118_YA],inactive: 0.727,inactive: 0.797,inactive: 0.846,inactive: 0.843,inactive: 0.774,inactive: 0.64
MLEERKTYVNTTLAE [TIE2_HUMAN_1102_YA],inactive: 0.836,inactive: 0.593,inactive: 0.623,inactive: 0.772,inactive: 0.669,inactive: 0.704
AKGNLQEYLTRHVIS [TGFBR2_HUMAN_336],inactive: 1.43,inactive: 1.42,inactive: 1.43,inactive: 1.21,inactive: 1.43,inactive: 1.77
ILEEEKIYAYPSNIT [TM192_HUMAN_213],inactive: 0.852,inactive: 0.771,inactive: 0.864,inactive: 0.502,inactive: 0.815,inactive: 0.99
AQPEQDEYDIPRHLL [BCAR1_HUMAN_234],inactive: 0.892,inactive: 0.746,inactive: 0.881,inactive: 0.633,inactive: 0.726,inactive: 0.749
SKAQQGLYQVPGPSP [BCAR1_HUMAN_128],inactive: 0.788,inactive: 0.56,inactive: 0.65,inactive: 0.617,inactive: 0.865,inactive: 0.687
NRGGAGNYRSNWQNA [THRAP3_HUMAN_107_YA],inactive: 1.49,inactive: 1.28,inactive: 1.27,inactive: 1.41,inactive: 1.61,inactive: 2.17
